Results: patent US9777070B2, “Anti-PTK7 antibody-drug conjugates” (Pfizer Inc., priority 2014, dated 2017)

T1: PTK7 on OE19 and OE21 cells (Homo sapiens, UniProt Q13308)
T1 construct: cancer cell lines with endogenous expression of PTK7; endogenous in cells; host or cells: cultured cancer cell lines (e.g. H661, H446, U2OS, H520, H1048, OE19, OE21, H1975, EKVX)
T1 sequence (Q13308 31-1070): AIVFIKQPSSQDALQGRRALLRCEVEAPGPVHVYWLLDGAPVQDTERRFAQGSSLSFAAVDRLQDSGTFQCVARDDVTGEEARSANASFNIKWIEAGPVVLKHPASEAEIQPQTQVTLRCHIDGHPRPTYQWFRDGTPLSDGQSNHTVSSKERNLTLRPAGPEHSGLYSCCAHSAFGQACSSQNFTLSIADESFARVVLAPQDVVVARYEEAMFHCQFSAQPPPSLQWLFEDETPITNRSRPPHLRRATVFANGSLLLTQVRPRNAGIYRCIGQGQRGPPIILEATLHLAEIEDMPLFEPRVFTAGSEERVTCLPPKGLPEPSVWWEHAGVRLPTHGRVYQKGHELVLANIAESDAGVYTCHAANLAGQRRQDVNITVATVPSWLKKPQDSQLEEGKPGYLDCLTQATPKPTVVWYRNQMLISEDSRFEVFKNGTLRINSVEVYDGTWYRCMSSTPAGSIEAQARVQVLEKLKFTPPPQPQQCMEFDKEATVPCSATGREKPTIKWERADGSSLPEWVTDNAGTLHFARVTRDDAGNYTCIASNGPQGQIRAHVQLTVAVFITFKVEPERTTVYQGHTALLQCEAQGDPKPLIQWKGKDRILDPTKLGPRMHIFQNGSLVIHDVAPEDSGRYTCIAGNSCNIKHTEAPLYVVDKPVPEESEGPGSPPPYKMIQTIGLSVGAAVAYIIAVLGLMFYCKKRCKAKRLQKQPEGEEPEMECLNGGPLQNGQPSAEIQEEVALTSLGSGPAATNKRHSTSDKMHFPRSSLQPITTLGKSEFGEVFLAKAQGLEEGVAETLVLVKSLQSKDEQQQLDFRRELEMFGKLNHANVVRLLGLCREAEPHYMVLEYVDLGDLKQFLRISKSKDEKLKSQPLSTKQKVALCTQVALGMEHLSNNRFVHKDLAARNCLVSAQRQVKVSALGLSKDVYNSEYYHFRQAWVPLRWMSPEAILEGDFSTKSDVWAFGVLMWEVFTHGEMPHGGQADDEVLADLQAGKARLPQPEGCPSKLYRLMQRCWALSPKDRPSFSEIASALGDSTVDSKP

B1: hu24 (antibody)
heavy: QVQLVQSGPEVKKPGASVKVSCKASGYTFTDYAVHWVRQAPGKRLEWIGVISTYNDYTYNNQDFKGRVTMTRDTSASTAYMELSRLRSEDTAVYYCARGNSYFYALDYWGQGTSVTVSS[letters of human IgG1 constant region omitted]
light: EIVLTQSPATLSLSPGERATLSCRASESVDSYGKSFMHWYQQKPGQAPRLLIYRASNLESGIPARFSGSGSGTDFTLTISSLEPEDFAVYYCQQSNEDPWTFGGGTKLEIKRTVAAPSVFIFPPSDEQLKSGTASVVCLLNNFYPREAKVQWKVDNALQSGNSQESVTEQDSKDSTYSLSSTLTLSKADYEKHKVYACEVTHQGLSSPVTKSFNRGEC
B2: hu24-vc0101: hu24 conjugated through cysteines to vc0101 linker-payload; average DAR approximately 4 (conjugate)
heavy: B1 heavy
light: B1 light

What was measured:
[1] = biological target: T1, PTK7 on OE19 and OE21 cells; test: Flow cytometry staining of esophageal cancer cell lines with hu24; type: binding; details: OE21 cells; 5 μg/mL; versus isotype control
Method: In another experiment, the saporin assay was performed on two cell lines derived from esophageal cancers, OE19 and OE21 (Sigma Aldrich). To determine PTK7 expression on the cell lines, the cells were cultured and single cell suspensions were isolated using Versene (Invitrogen). […] Cells were washed again in PBS/2% FCS, then incubated at 1:200 with anti-human Alexa Fluor647 (Jackson Immunoresearch) for 20 minutes. Cells were washed again, resuspended in DAPI, and then analyzed on a BD FACSCanto to determine the change in mean fluorescence intensity (ΔMFI).

HUVEC cells = test: In vitro HUVEC sprouting angiogenesis assay; type: cell-based, human; details: 1 μg/mL; 8 days; FIG. 23
Method: Briefly, HUVEC cells (Lonza—#CC-2517) were used to coat Cytodex beads (Sigma #C0646-5G) at a ratio of approximately 1×10^6 cells/2500 beads, and then placed overnight in an 37° C./5% CO2 incubator with Endothelial Cell Growth Medium (Lonza # CC-3162). The following day the beads were washed with Endothelial Cell Growth Medium, and re-suspended in a solution of a 2.0 mg/ml fibrinogen type I (filter sterilized) in DPBS and 0.15 units/ml Aprotinin. Into each well of a 24 well plate, 0.3125 units of thrombin were added prior to addition of 500 ul of the bead solution. To facilitate clotting, the plates were placed in a 37° C. incubator for 15 minutes. Lastly skin fibroblast cells (Detroit 551—ATCC #CCL-110), suspended in Endothelial Cell Growth Medium, were carefully laid on top of the formed fibrinogen clot. The cells were fed, with their respective drug treatment, every other day and grown for 8 days. The degree of HUVEC sprouting and formation of branching vessels was observed.

| Molecule | change in mean fluorescence intensity (ΔMFI) [1] | effect on HUVEC sprouting angiogenesis (HUVEC cells) |
| --- | --- | --- |
| B1 | 5976 |  |
| B2 |  | inhibited sprouting angiogenesis |
